# Assay results published in PubChem BioAssay (Tox21).
# The shares of active, inactive and inconclusive entries below differ from those in the screen. For part of these data: No potency is given beside an inconclusive call; the fits are too rough. Active and inactive are the calls of the source. Unless noted, calls come from the whole dose curve.
# Tests used:
# [1] = biological target: Peroxisome proliferator-activated receptor gamma (Homo sapiens) (UniProt P37231); assay: qHTS assay to identify small molecule antagonists of the peroxisome proliferator-activated receptor gamma (PPARg) signaling pathway (AID 743191); conditions: HEK293H PPARg-UAS-bla, beta-lactamase ratio, antagonist, 17 h; ratio activity, negative = inhibition: at 62.6 µM (top of the series) unless noted; note: nearly all actives have a fitted effect of over 30% in size; note: potency is the fitted concentration of half-maximal effect; for ratio activity, negative = inhibition: % is set by controls: 0 for no effect and ±100 for the full control effect
# Procedure, shortened: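 GeneBLAzer PPARg UAS-bla HEK293H cells, 5 h post-plating, exposed to compounds 17 h at 37C. LiveBLAzer B/G FRET substrate added for 1 h at room temperature; beta-lactamase reporter read by fluorescence intensity.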
# [2] = qHTS assay for small molecule activators of the heat shock response signaling pathway (AID 743210; active = well fitted activation curve with a large enough effect in the signal ratio in the repeat runs, with a control signal flat, not every such curve was filed as active; inconclusive = weak or mixed curves; the % refers to the signal ratio; note: potency is the fitted concentration of half-maximal effect); conditions: HeLa HSE-bla reporter, beta-lactamase ratio, 5 h; activation: at 62.6 µM (top of the series)
# Procedure, shortened: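 Following overnight attachment, HSE-bla HeLa cells received test compounds for 5 h at 37 C; beta-lactamase activity was then detected via FRET substrate fluorescence.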
# [3] = qHTS assay to identify small molecule agonists of the peroxisome proliferator-activated receptor delta (PPARd) signaling pathway - cell viability counter screen (AID 743211; active = well fitted curve in the direction sought with a large enough effect in the repeat runs; inconclusive = weak or mixed curves; inactive = no such curve, though single readings can be large; an effect the other way counts as inactive or inconclusive; note: nearly all actives have a fitted effect of over 55% in size; note: potency is the fitted concentration of half-maximal effect); conditions: PPARd-bla HEK293H viability, CellTiter-Glo luminescence, 17 h; activity change, negative = cytotoxicity: at 62.6 µM (top of the series)
# Procedure, shortened: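 PPARd-bla HEK293H cells (UAS-beta-lactamase reporter) were treated with compounds for 17 h at 37 C. Viability was then read in the same wells by CellTiter-Glo luminescence after 30 min at room temperature.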
# [4] = biological target: Bile acid receptor (Homo sapiens) (UniProt Q96RI1); assay: qHTS assay to identify small molecule antagonists of the farnesoid-X-receptor (FXR) signaling pathway (AID 743217; active = well fitted inhibition curve with a large enough effect in the signal ratio in the repeat runs, not every such curve was filed as active; inconclusive = weak or mixed curves, or effect the other way; inactive = no such curve, though single readings can be large or run the other way; the % refers to the signal ratio; note: potency is the fitted concentration of half-maximal effect); conditions: HEK293T FXR-UAS-bla, beta-lactamase ratio, CDCA-stimulated, 16 h; activity change, negative = inhibition: at 62.6 µM (top of the series) unless noted
# Procedure, shortened: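 Test compounds are pin-transferred onto FXR-bla HEK 293T cells, then chenodeoxycholic acid is added at 50 uM final. After 16 h at 37 °C, LiveBLAzer B/G substrate is applied for 2 h at room temperature and fluorescence read.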
# [5] = qHTS assay to identify small molecule agonists of the farnesoid-X-receptor (FXR) signaling pathway - cell viability counter screen (AID 743218; active = well fitted curve in the direction sought with a large enough effect in the repeat runs; inconclusive = weak or mixed curves; inactive = no such curve, though single readings can be large; an effect the other way counts as inactive or inconclusive; note: nearly all actives have a fitted effect of over 45% in size; note: potency is the fitted concentration of half-maximal effect); conditions: FXR-bla HEK293T viability, CellTiter-Glo luminescence, 16 h; viability change, negative = cytotoxic: at 62.6 µM (top of the series) unless noted
# Procedure, shortened: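 Quantitative HTS counter screen measuring ATP-based viability via CellTiter-Glo luminescence in HEK 293T cells carrying a UAS-driven beta-lactamase reporter, after 16 h compound exposure at 37 C.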
# [6] = biological target: Vitamin D3 receptor (Homo sapiens) (UniProt P11473); assay: qHTS assay to identify small molecule agonists of the vitamin D receptor (VDR) signaling pathway (AID 743222); conditions: HEK293T VDR-UAS-bla, beta-lactamase FRET ratio, 16 h; activation: at 63.5 µM (top of the series) unless noted; note: potency is the fitted concentration of half-maximal effect
# Procedure, shortened: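 Tox21 cell reporter format: VDR-bla line, 16 h compound exposure in 5% CO2 at 37C, then fluorescence intensity after 2 h with LiveBLAzer B/G FRET substrate.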
# [7] = biological target: Vitamin D3 receptor (Homo sapiens) (UniProt P11473); assay: qHTS assay to identify small molecule antagonists of the vitamin D receptor (VDR) signaling pathway (AID 743223; active = well fitted inhibition curve with a large enough effect in the signal ratio in the repeat runs, not every such curve was filed as active; inconclusive = weak or mixed curves, or effect the other way; inactive = no such curve, though single readings can be large or run the other way; the % refers to the signal ratio; note: potency is the fitted concentration of half-maximal effect; for activity change, negative = inhibition: % is set by controls: 0 for no effect and ±100 for the full control effect); conditions: VDR-UAS-bla HEK293T, beta-lactamase FRET ratio, 16 h; activity change, negative = inhibition: at 61 µM (top of the series) unless noted
# Procedure, shortened: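 VDR-bla cells were plated, incubated 4 h at 37C, then given compound and 1alpha,25-dihydroxyvitamin D3 (3 nM final). After 16 h at 37C, LiveBLAzer B/G FRET substrate was added for 2 h at room temperature and fluorescence read.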
# [8] = qHTS assay for small molecule agonists of the antioxidant response element (ARE) signaling pathway - cell viability counter screen (AID 743203); conditions: ARE-bla HepG2 viability, CellTiter-Glo luminescence, 16 h; viability change, negative = cytotoxic: at 73.3 µM (top of the series); note: % is set by controls: 0 for no effect and ±100 for the full control effect; nearly all actives have a fitted effect of over 55% in size
# Procedure, shortened: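 ATP content via CellTiter-Glo luminescence served as the viability measure. Cells: ARE-bla HepG2, 2,000 per well. Exposure: 16 hrs, 37C/5% CO2.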
# [9] = biological target: Peroxisome proliferator-activated receptor delta (Homo sapiens) (UniProt Q03181); assay: qHTS assay to identify small molecule agonists of the peroxisome proliferator-activated receptor delta (PPARd) signaling pathway (AID 743212); conditions: HEK293H PPARd-UAS-bla, beta-lactamase FRET ratio, 17 h; activation: at 62.6 µM (top of the series) unless noted; note: potency is the fitted concentration of half-maximal effect; for activation: % is set by controls: 0 for no effect and ±100 for the full control effect
# Procedure, shortened: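 Tox21 library screened in GeneBLAzer PPARd UAS-bla HEK293H cells. After compound treatment at 37 C, a FRET-based beta-lactamase substrate was applied for 2 h and fluorescence recorded.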
# [10] = biological target: Peroxisome proliferator-activated receptor delta (Homo sapiens) (UniProt Q03181); assay: qHTS assay to identify small molecule antagonists of the peroxisome proliferator-activated receptor delta (PPARd) signaling pathway (AID 743215; active = well fitted inhibition curve with a large enough effect in the signal ratio in the repeat runs, not every such curve was filed as active; inconclusive = weak or mixed curves, or effect the other way; inactive = no such curve, though single readings can be large or run the other way; the % refers to the signal ratio;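 note: cells stimulated with agonist L165041 at 300 nM final during compound exposure; % is set by controls: 0 for no effect and ±100 for the full control effect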); conditions: HEK293H PPARd-UAS-bla, beta-lactamase FRET ratio, antagonist, 17 h; ratio activity, negative = inhibition: at 62 µM (top of the series) unless noted
# Procedure, shortened: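 Here, a reporter line (HEK293H, beta-lactamase under a UAS) measures PPARd signaling. Compounds are tested against agonist L165041 at 300 nM final concentration over 17 h at 37 C, with fluorescence read after substrate.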
# [11] = qHTS assay to identify small molecule antagonists of the peroxisome proliferator-activated receptor delta (PPARd) signaling pathway - cell viability counter screen (AID 743213; active = well fitted curve in the direction sought with a large enough effect in the repeat runs; inconclusive = weak or mixed curves; inactive = no such curve, though single readings can be large; an effect the other way counts as inactive or inconclusive; note: nearly all actives have a fitted effect of over 50% in size; note: potency is the fitted concentration of half-maximal effect); conditions: PPARd-bla HEK293H viability, CellTiter-Glo luminescence, 17 h; viability change, negative = cytotoxic: at 62 µM (top of the series) unless noted
# Procedure, shortened: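 Viability counter-screen, qHTS format: PPARd-bla HEK293H, L165041 300 nM final, 17 h compound exposure at 37 C, CellTiter-Glo luminescence after 30 min RT.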
# [12] = qHTS assay for small molecule activators of the heat shock response signaling pathway - cell viability counter screen (AID 743209; active = well fitted curve in the direction sought with a large enough effect in the repeat runs; inconclusive = weak or mixed curves; inactive = no such curve, though single readings can be large; an effect the other way counts as inactive or inconclusive; note: potency is the fitted concentration of half-maximal effect; nearly all actives have a fitted effect of over 50% in size); conditions: HSE-bla HeLa viability, CellTiter-Glo luminescence, 5 h; activity change, negative = cytotoxicity: at 62.6 µM (top of the series)
# Procedure, shortened: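 Compounds dissolved in DMSO were added to overnight-plated HSE-bla HeLa cells and left 5 h at 37 C. Cell viability was quantified by luminescence using CellTiter-Glo.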
# Tags give direction and shape of the fitted curve or compound fluorescence and quenching.
# UniProt Q03181, sequence (Q03181 whole entry, looked up): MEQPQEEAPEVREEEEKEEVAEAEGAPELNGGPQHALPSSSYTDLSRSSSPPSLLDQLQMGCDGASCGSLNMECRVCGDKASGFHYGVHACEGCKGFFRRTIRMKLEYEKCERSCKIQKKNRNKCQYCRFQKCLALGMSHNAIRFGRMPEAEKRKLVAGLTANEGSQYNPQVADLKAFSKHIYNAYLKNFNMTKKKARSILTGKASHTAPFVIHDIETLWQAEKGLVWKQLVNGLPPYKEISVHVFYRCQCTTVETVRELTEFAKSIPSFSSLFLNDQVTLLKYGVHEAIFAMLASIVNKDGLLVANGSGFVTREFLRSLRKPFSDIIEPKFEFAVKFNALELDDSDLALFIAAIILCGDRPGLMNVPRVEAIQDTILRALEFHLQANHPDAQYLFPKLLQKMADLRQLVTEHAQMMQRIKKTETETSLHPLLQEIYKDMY
# UniProt P11473, sequence (P11473 whole entry, looked up): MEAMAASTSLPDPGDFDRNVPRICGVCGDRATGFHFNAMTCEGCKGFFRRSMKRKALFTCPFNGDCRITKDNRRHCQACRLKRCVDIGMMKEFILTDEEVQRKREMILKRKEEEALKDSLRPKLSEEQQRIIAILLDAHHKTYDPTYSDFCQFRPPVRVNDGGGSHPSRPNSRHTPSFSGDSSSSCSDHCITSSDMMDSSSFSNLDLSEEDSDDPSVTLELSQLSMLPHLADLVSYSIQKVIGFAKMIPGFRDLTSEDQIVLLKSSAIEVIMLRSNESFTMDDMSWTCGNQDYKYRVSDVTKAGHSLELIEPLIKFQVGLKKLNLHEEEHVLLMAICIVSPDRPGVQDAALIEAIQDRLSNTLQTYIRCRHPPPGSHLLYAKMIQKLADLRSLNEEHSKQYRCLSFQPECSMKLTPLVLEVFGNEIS
# UniProt P37231, sequence (P37231 whole entry, looked up): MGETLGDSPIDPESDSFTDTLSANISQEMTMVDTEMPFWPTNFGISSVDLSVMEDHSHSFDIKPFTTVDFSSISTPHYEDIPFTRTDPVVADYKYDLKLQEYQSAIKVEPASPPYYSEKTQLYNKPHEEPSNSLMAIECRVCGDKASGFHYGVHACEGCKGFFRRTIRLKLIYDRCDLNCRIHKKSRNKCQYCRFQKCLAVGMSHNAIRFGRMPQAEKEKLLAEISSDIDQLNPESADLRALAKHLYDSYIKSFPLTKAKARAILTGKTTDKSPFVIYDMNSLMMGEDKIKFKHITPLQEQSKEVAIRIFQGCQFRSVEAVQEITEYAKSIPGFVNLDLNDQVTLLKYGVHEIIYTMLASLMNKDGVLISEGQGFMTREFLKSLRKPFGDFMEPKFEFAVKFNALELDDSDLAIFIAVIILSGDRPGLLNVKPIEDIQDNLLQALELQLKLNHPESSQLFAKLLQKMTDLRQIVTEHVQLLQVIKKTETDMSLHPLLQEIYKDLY
# UniProt Q96RI1, sequence (Q96RI1 whole entry, looked up): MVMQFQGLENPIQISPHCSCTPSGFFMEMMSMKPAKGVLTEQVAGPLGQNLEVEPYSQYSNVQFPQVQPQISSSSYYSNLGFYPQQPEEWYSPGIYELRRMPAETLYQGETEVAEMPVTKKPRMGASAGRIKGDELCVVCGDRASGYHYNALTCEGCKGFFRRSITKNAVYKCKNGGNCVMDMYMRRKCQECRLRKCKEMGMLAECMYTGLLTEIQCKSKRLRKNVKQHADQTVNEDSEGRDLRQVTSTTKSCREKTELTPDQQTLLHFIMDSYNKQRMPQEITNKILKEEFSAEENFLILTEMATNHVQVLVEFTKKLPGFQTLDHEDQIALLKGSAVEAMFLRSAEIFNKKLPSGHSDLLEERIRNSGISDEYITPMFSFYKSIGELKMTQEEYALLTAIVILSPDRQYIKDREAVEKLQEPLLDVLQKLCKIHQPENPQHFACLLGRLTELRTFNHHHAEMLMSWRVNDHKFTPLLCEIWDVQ
compound,measurement,setting,value
Cc1cc(C(C)(C)C)c(O)c(C)c1Cn1c(=O)n(Cc2c(C)cc(C(C)(C)C)c(O)c2C)c(=O)n(Cc2c(C)cc(C(C)(C)C)c(O)c2C)c1=O,"ratio activity, negative = inhibition",[1],inconclusive: -7.31%
same,Potency,[2],inconclusive
same,Potency,[3],"inconclusive [cytotoxic, full curve, poor fit]"
same,Potency,[4],active: 19.5 µM
same,Potency,[5],"inconclusive [cytotoxic, partial curve]"
same,Potency,[6],"inconclusive [rising, partial curve, poor fit]"
same,Potency,[7],inactive
N#CCCOCCOCCC#N,"ratio activity, negative = inhibition",[1],inconclusive: 0.207%
same,Potency,[8],inactive
same,Potency,[9],inactive
same,Potency,[10],inactive
same,Potency,[4],inactive
CN(C)CCN1CCN(c2cccc(Cl)c2)C1=O,"ratio activity, negative = inhibition",[1],inconclusive: -2.42%
same,Potency,[9],inactive
same,Potency,[10],inactive
same,Potency,[6],inactive
same,Potency,[7],inactive
CCO[Si](CCCSSSSCCC[Si](OCC)(OCC)OCC)(OCC)OCC,"ratio activity, negative = inhibition",[1],inconclusive: -29.9%
same,Potency,[2],inactive
same,Potency,[3],"inconclusive [cytotoxic, single point]"
same,Potency,[9],"inconclusive [rising, full curve, poor fit]"
same,Potency,[11],inactive
same,"ratio activity, negative = inhibition",[10],inconclusive: 17.8%
same,"activity change, negative = inhibition",[7],inconclusive: 0.18%
C[Si](C)(C)O[Si](C)(C)C,Potency,[1],inactive
same,Potency,[9],inactive
same,"activity change, negative = inhibition",[7],inconclusive: 13.9%
CN[C@@H]1[C@@H](O)[C@@H](O[C@@H]2[C@H](O)[C@H](O[C@H]3OC(CN)=CC[C@H]3N)[C@@H](N)C[C@H]2N)OCC1(C)O (stereo not given in full),"ratio activity, negative = inhibition",[1],inconclusive: 6.13%
same,Potency,[3],inactive
same,Potency,[6],"inconclusive [falling, partial curve, poor fit]"
CO[Si](CCCNc1ccccc1)(OC)OC,"ratio activity, negative = inhibition",[1],inconclusive: -9.34%
same,Potency,[3],inactive
Cc1nc(-c2ccc(OCC(C)C)c(C#N)c2)sc1C(=O)O,Potency,[1],"inconclusive [rising, partial curve, poor fit]"
same,Potency,[9],"inconclusive [rising, partial curve]"
same,"ratio activity, negative = inhibition",[10],inconclusive: 27.1%
same,Potency,[6],inconclusive
same,Potency,[7],"inconclusive [activator, full curve]"
C/C=C(\C)C(=O)OCc1ccccc1,Potency,[1],"inconclusive [activator, single point]"
same,Potency,[12],"inconclusive [cytotoxic, single point]"
same,Potency,[11],"inconclusive [cytotoxic, single point]"
Cc1ccc2ccc3cccc4ccc1c2c34,Potency,[1],inactive
same,Potency,[3],"inconclusive [cytotoxic, partial curve]"
same,Potency,[11],inactive
same,"activity change, negative = inhibition",[4],inconclusive: -30.8%
same,Potency,[5],inactive
